# PubChem BioAssay AID504845 (National Center for Advancing Translational Sciences (NCATS), 2011)
# About 150 (0.038%) of roughly 390,000 compounds were called active. The shares of active, inactive and inconclusive entries below differ from those in the screen. Calls follow the shape of the dose curve; as a rule, active = well fitted inhibition curve with a large enough effect; inconclusive = small, poorly fitted or top-dose-only effect; inactive = no such curve, though single readings can be large or run the other way. Potencies beside an inconclusive call are fits to weak or partial responses and may not hold up.
# Target: Regulator of G-protein signaling 4 (Homo sapiens) (UniProt P49798)
# UniProt P49798, sequence (P49798 whole entry, looked up): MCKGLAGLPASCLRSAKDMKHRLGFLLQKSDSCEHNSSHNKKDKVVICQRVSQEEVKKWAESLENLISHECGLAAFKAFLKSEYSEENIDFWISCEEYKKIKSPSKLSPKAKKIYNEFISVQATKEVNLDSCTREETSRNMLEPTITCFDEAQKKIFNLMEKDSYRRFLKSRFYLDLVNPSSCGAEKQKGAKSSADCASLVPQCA
# Assay: Inhibitors of Regulator of G Protein Signaling (RGS) 4: qHTS; also: nearly all actives have a fitted effect of over 75% in size
# Settings: Transcreener GDP fluorescence polarization, RGS4-accelerated GTP hydrolysis; series mostly up to 114 µM
# How it was run: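 MLSMR compounds (23 nl, pin-transferred) preincubated 10 min at room temperature with a 500nM (2x) first reagent, then RGS4 at 900nM (2x) plus Transcreener GDP mix added; fluorescence polarization (620/688 nm) read before and after 90 min at 30 °C.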
# Potency is read from the fitted curve at half-maximal effect; tags tell the direction and shape of the fitted curve.
row,SMILES,Potency
1,CCOC(=O)c1c(C)oc2c1cc(NS(=O)(=O)c1ccc(C(=O)O)cc1)c1ccccc12,"inconclusive: 50.1 µM [inhibitor, partial curve, poor fit]"
2,COc1ccccc1Nc1nc(N)nc(CN2CCN(Cc3ccc4c(c3)OCO4)CC2)n1,"inconclusive: 100 µM [inhibitor, single point]"
3,O=C(O)c1ccc(S(=O)(=O)c2ccc3c(c2)C(=O)N(NC(=O)c2ccncc2)C3=O)cc1,inactive
4,O=C(O)c1cccc(Cn2c(Cl)c(/C=N/Nc3ccccc3)sc2=O)c1,"inconclusive: 79.4 µM [inhibitor, partial curve, poor fit]"
5,Cc1ccc(C2CN(c3ccccc3)CC2C(=O)c2ccc(F)cc2)cc1 (configuration not stated),inactive
6,COC(=O)Cn1c2ccccc2c2nc3ccccc3nc21,inactive
7,CCC(=O)NC(c1ccccc1OC)c1ccc2cccnc2c1O (configuration not stated),inactive
8,COc1ccc(-c2csc(NC(=S)NC(=O)c3cccs3)n2)cc1OC,"inconclusive: 28.2 µM [inhibitor, full curve, poor fit]"
9,O=C(NCCc1ccccc1)c1ccc2c(=O)[nH]c3c(C(=O)NCC4CCCO4)sc(=S)n3c2c1 (configuration not stated),"inconclusive: 89.1 µM [inhibitor, single point]"
10,CNS(=O)(=O)c1ccc(CCC(=O)N2CCOCC2)cc1,"inconclusive: 89.1 µM [inhibitor, single point]"
11,O=C(C1CCN(S(=O)(=O)c2ccc(Cl)s2)CC1)N1CCN(c2ccccc2)CC1,inactive
12,O=C(O)CCCN1C(=O)/C(=C/C=C/c2ccco2)SC1=S,"inconclusive: 50.1 µM [inhibitor, partial curve, poor fit]"
13,O=C(CCN1C(=O)c2ccccc2C1=O)NC1=NCCS1,inactive
14,CC(Cc1cccs1)NC(=O)Nc1ccc(Cl)c(Cl)c1 (configuration not stated),inactive
15,CCC(C)NC(=O)CCC(=O)Nc1ccc2nc(N3CCOCC3)cc(C)c2c1 (configuration not stated),"inconclusive: 89.1 µM [inhibitor, single point]"
16,COc1ccc2c(CNCc3ccc(Cl)cc3)c(C(=O)O)n(Cc3ccccc3C)c2c1,inactive
17,O=C(c1ccco1)N1CCN(c2nc3ccccc3n3nnnc23)CC1,"inconclusive: 79.4 µM [inhibitor, single point]"
18,COc1ccc(OC)c(C2CC(=O)c3c([nH]c(C(=O)OC4CCC(C)CC4)c3C)C2)c1 (configuration not stated),inactive
19,CCOC(=O)c1c(N2C(=O)CC(Sc3ccccc3C(=O)O)C2=O)sc(C)c1C (configuration not stated),"inconclusive: 56.2 µM [inhibitor, partial curve, poor fit]"
20,COc1ccc2c(c1)-c1nc(NC(=O)c3ccco3)sc1CC2,inactive
21,O=C1N=C(N2CCOCC2)S/C1=C/c1cccs1,inactive
22,O=C(Nc1ccc(F)cc1)N(Cc1cccs1)Cc1cc2cc3c(cc2[nH]c1=O)OCO3,inactive
23,COc1ccc2[nH]c3c(c2c1)CCN1C(=O)C(CC(=O)NCc2ccc(OC)c(OC)c2)C[C@H](C(=O)N2CCOCC2)[C@@]31CCC1CCCC1 (some centres not stated),"inconclusive: 89.1 µM [inhibitor, partial curve, poor fit]"

row,SMILES,Potency
1,COc1ccc(-c2nc(C(N)=O)c3[nH]c(=O)n(-c4ccccc4OC)c3n2)c(OC)c1,inactive
2,COc1ccc(C(CNC(=O)COc2ccc(C)cc2)N2CCCCC2)cc1 (configuration not stated),inactive
3,COc1ccccc1NC(=O)c1c(NCc2sccc2C)sc2c1CCCCC2,"inconclusive: 79.4 µM [inhibitor, partial curve, poor fit]"
4,CCOc1ccc(/C=C(\C#N)c2nc(-c3cc4ccccc4oc3=O)cs2)c(OCC)c1,inactive
5,COc1cccc(-c2onc3ccc(C(=O)/C=C/N(C)C)cc23)c1,"inconclusive: 35.5 µM [inhibitor, partial curve, poor fit]"
6,Cc1sc(NC(=S)NC(=O)c2ccccc2)c(C#N)c1C,"inconclusive: 100 µM [inhibitor, partial curve, poor fit]"
7,COc1ccc(-n2sc3ccc(F)cc3c2=O)cc1,inactive
8,O=Cc1ccc(OCCN2CCCC2=O)cc1,"inconclusive: 56.2 µM [inhibitor, partial curve, poor fit]"
9,COc1ccc(OC)c(C2CC(=O)N3CN(c4ccccc4F)CSC3=C2C#N)c1 (configuration not stated),"inconclusive: 31.6 µM [inhibitor, full curve, poor fit]"
10,CC(=O)Nc1ccc(C(=O)CSc2nc3ccc(C)cc3[nH]2)cc1,"inconclusive: 50.1 µM [inhibitor, partial curve, poor fit]"
11,O=C(c1ccco1)N(c1ccccn1)c1ccccn1,inactive
12,O=C(Nc1cccc(Cl)c1)c1c(NC(=O)C(F)(F)F)sc2c1CCCC2,"inconclusive: 50.1 µM [inhibitor, partial curve, poor fit]"
13,O=C1COc2ccc(C(=O)COC(=O)c3nc(Cl)ccc3Cl)cc2N1,"inconclusive: 50.1 µM [inhibitor, single point]"
14,Cc1ccc(Cl)cc1N1CCN(C(=O)CSc2nnc3n2C(C)(C)Cc2ccccc2-3)CC1,inactive
15,COC(=O)C1=C(C)N(Cc2ccccc2)C(=NCc2cc(OC)c(OC)c(OC)c2)N[C@H]1c1ccc(Br)cc1,"inconclusive: 89.1 µM [inhibitor, single point]"
16,Cn1cc(Br)c(C(=O)n2cc(Br)cn2)n1,"inconclusive: 44.7 µM [inhibitor, partial curve, poor fit]"
17,CS(=O)(=O)c1ccc(-c2cccc(NC(=O)c3ccc(Br)o3)c2)nn1,inactive
18,CCOC(=O)C1=C(CSc2nc(C)ccc2C#N)OC(N)=C(C#N)C1c1cccc(OC)c1OC (configuration not stated),"inconclusive: 100 µM [inhibitor, single point]"
19,O=C(Nc1ccccc1C(=O)Nc1nnc(C(F)(F)F)s1)c1ccccc1,inactive
20,O=C(Nc1nc(-c2ccccn2)cs1)Nc1ccc(F)cc1F,"inconclusive: 89.1 µM [inhibitor, single point]"
21,COc1ccccc1NC(=O)/C(=N/OCc1ccc(C#N)cc1)C(C)=O,"inconclusive: 79.4 µM [inhibitor, single point]"
22,O=C(Nc1ccccn1)c1sc2cc([N+](=O)[O-])ccc2c1Cl,"inconclusive: 31.6 µM [inhibitor, partial curve, poor fit]"
23,CC(C)c1ccc(/C=N/n2c(COc3ccccc3)n[nH]c2=S)cc1,"inconclusive: 50.1 µM [inhibitor, partial curve, poor fit]"

row,SMILES,Potency
1,COc1cc(C(c2c(C)[nH][nH]c2=O)c2c(C)[nH][nH]c2=O)ccc1OC(=O)c1cccc(C)c1,"inconclusive: 50.1 µM [inhibitor, partial curve, poor fit]"
2,Nc1ccc(N2CCCCC2)c2nonc12,"inconclusive: 50.1 µM [inhibitor, partial curve, poor fit]"
3,CCOC(=O)c1c(N)sc(-c2ccccc2)c1C,"inconclusive: 31.6 µM [inhibitor, full curve, poor fit]"
4,COc1cc(-c2cc(=O)c3c(C)cc(O)cc3o2)cc(OC)c1OC,"inconclusive: 89.1 µM [inhibitor, partial curve, poor fit]"
5,CCOC(=O)c1nn(-c2ccc(C)cc2)c(=O)c2c(N)scc12,"inconclusive: 50.1 µM [inhibitor, partial curve, poor fit]"
6,CCc1cccc(NC(=O)C2CCCN(S(=O)(=O)c3cccs3)C2)c1 (configuration not stated),"inconclusive: 79.4 µM [inhibitor, single point]"
7,CC(N)=O,"inconclusive: 1.5 µM [inhibitor, partial curve, poor fit]"
8,O=C1CCN2C=Nc3cccc4ccc1c2c34,"inconclusive: 100 µM [inhibitor, single point]"
9,CCn1cc(C(=O)N2CCCc3ccccc32)c2cc(OC)c(OC)cc2c1=O,inactive
10,Cc1cccc(-n2c(-c3csc(C)c3C)n[nH]c2=S)c1,"inconclusive: 89.1 µM [inhibitor, partial curve, poor fit]"
11,COc1ccc(OC)c(NC(=O)CSc2ccc(-c3ccco3)nn2)c1,"inconclusive: 56.2 µM [inhibitor, partial curve, poor fit]"
12,CN(CCCNC(=O)CSc1cc(=O)n(C)c2cc(Cl)ccc12)Cc1ccccc1,inactive
13,Cc1c(C(=O)O)cnc2c([N+](=O)[O-])cnn12,"inconclusive: 17.8 µM [inhibitor, full curve, poor fit]"
14,C=CCn1c2ccccc2c2n[nH]c(=S)nc21,"inconclusive: 35.5 µM [inhibitor, partial curve, poor fit]"
15,CCCCOc1ccc(CN2C(=O)C(=O)c3cc(Br)cc(C)c32)cc1OC,"inconclusive: 31.6 µM [inhibitor, full curve, poor fit]"
16,CC(C)(C)C(=O)Nc1nc(=S)ss1,"inconclusive: 79.4 µM [inhibitor, partial curve, poor fit]"
17,CCC(C)N(C)Cc1cccc(C2(O)CCN(S(=O)(=O)c3ccc(F)c(C)c3)CC2)c1 (configuration not stated),inactive
18,COC(=O)c1c(-c2cccs2)csc1NC(=O)COc1c(C)ccc(C)c1C,"inconclusive: 70.8 µM [inhibitor, partial curve, poor fit]"
19,O=C(/C=C/c1ccccc1F)c1cccc([N+](=O)[O-])c1,"inconclusive: 79.4 µM [inhibitor, partial curve, poor fit]"
20,O=C(c1ccccc1)c1ccccc1C(=O)N1CCN(C(=O)c2ccccc2)CC1,"inconclusive: 50.1 µM [inhibitor, partial curve, poor fit]"
21,CCOC(=O)C1CCN(c2c(NCc3ccc(C(=O)NC(C)CC)cc3)c(=O)c2=O)CC1 (configuration not stated),"inconclusive: 79.4 µM [inhibitor, single point]"
